The chains are these.
B1: CPEB3 Ribozyme (parent)
chain: UAACAGGGGGCCACAGCAGAAGCGUUCACGUCGCAGCCCCUGUCAGAUUCUGGUGAAUCUGCGAAUUCUGCUGUAUAUCUC

The source gives no read counts; variants with many changes may rest on few reads.

The variants in the series derive from B1. As to the kind of experiment: self-cleavage, relative activity (ratio to wild type); higher = more cleavage; in vitro, sequencing. Summed up: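 Barcoded CPEB3 ribozyme mutants, produced by rounds of error-prone PCR, self-cleaved while being transcribed with T7 RNA polymerase for 5 hours at 37°C and during a subsequent 15 min DNase I step before EDTA was added. Sequencing of template-switched cDNA on Illumina gave cleaved and total reads, and DNA sequencing assigned barcodes to variants. Each variant's relative activity is its cleaved/total read fraction divided by the unmutated ribozyme's fraction, averaged across three batches. A variant needed a minimum of 5 reads.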
Consider G16U U58C U74A, for which the self-cleavage amounted to 0.31.

Take C17G U66A U80A: the self-cleavage is 0.08.

For the variant G16A A35G U41A A56U A57U A77G, the self-cleavage was found to be 0.04.

With G16A A56G U58G U60A, the self-cleavage turned out to be 0.08.

For the variant C17U A28G U43C A77U, the self-cleavage is 0.11.

For A15U U31C G42A U60C, the self-cleavage turned out to be 0.13.

For A15U U31A U49C, the self-cleavage was 0.22.

Turning to C17A A47U U60A, the self-cleavage was determined as 0.11.

Consider C17U U25C U26C U78C, for which the self-cleavage was 0.27.

A15U U26G U54A A65U: the self-cleavage turned out to be 0.06.

As for A15U U41A U48A A56G U67C U78C, the self-cleavage came to 0.07.

Regarding A15U U26C U51C A64G U80C, the self-cleavage was determined as 0.22.

Take C17U A21G U26A A35U U66C U72A U74C: the self-cleavage stood at 0.07.

On to C17G C40U U67C, for which the self-cleavage worked out at 0.09.

In the case of C17U C32G C59A U67A U74A U80A, the self-cleavage turned out to be 0.03.

Consider A15U U48C U72A, for which the self-cleavage was found to be 0.51.

Turning to A15U U41C U60A A64U U72C U78C, the self-cleavage came to 0.17.

On to C17G C23U U26C, for which the self-cleavage stood at 0.18.

With C17U U25C U31C A35G U78A, the self-cleavage came out at 0.09.

Turning to A15U U72C U74C, the self-cleavage was found to be 1.01.

A15U U43C U48C U66C: the self-cleavage amounted to 0.12.

Turning to G16A A56G G61A U72C, the self-cleavage was 0.1.

A15U U43C C50G: the self-cleavage is 0.25.

Consider A15U U31A A35G A77G U78C, for which the self-cleavage was found to be 1.17.

Take C17U A20C A21G A35G U43C A64U: the self-cleavage was 0.04.

Regarding A15U U26C U48A U49C U51A A64G, the self-cleavage stood at 0.09.

For the variant C17U A21U C50A A56G A64G, the self-cleavage is 0.12.

With G16C G24U G52C, the self-cleavage is 0.15.

Regarding G16A A18U U31C U60C A77G, the self-cleavage amounted to 0.31.

For C17A G42U A45U A47G, the self-cleavage worked out at 0.04.

Regarding G16U A56U U69G U72A U76C U80C, the self-cleavage is 0.06.

Take G16A A28G A35G U41C A56G U76A U80A: the self-cleavage stood at 0.13.

For the variant A15U U26C U43G, the self-cleavage came out at 0.39.

G16A U25C U26C U51A A56G: the self-cleavage turned out to be 0.07.

Take G16A C29U U43C G46U: the self-cleavage is 0.11.

In the case of G16U A35U A57G A64U, the self-cleavage turned out to be 0.12.

For C17U A35U G63U, the self-cleavage is 0.42.

Regarding G16U C23A U26A A45C U72A U76C, the self-cleavage was determined as 0.11.

G16U U31C C38G: the self-cleavage stood at 0.19.

With C17G A20U A45G U60G C68G, the self-cleavage worked out at 0.05.

For the variant A15U U41A C68U U80C, the self-cleavage was found to be 0.22.

For G16C A21G U60A, the self-cleavage turned out to be 0.05.

On to G16A U49C G55U U69G, for which the self-cleavage is 0.05.

As for A15U U43C U51A U60A U66C U72C, the self-cleavage came out at 0.1.

Regarding A15U U43C G46A U67A U72C, the self-cleavage was found to be 0.11.

For C17A U41C C62U, the self-cleavage stood at 0.13.

Regarding C17G A18U U72A, the self-cleavage amounted to 0.22.

Consider A15U U51A A56G U69C U78C, for which the self-cleavage was 0.14.

For the variant G16A U25C A35G A45G, the self-cleavage came out at 0.12.

Consider C17G C32U A75U, for which the self-cleavage came to 0.35.

A15U U43C A56U C59A U80C: the self-cleavage amounted to 0.12.

As for G16A A75C U80A, the self-cleavage was 1.1.

Turning to C17A A21G U41C A57G A64G C71G G73A, the self-cleavage is 0.02.

Take G16C A28G U60C G61U U72A: the self-cleavage is 0.1.

As to G16A A20C C29U C50U, the self-cleavage was 0.11.

Turning to C17U U25C U31A U41G A47G U54C, the self-cleavage came to 0.08.

G16A U26C A45G A57G U67C U72C A75U: the self-cleavage came out at 0.14.

With A15U U69C A77U U80C, the self-cleavage came out at 0.2.

As to C17G U31A U41C A45G C62A U69C A75G, the self-cleavage is 0.09.

Take G16A U25C A45U: the self-cleavage turned out to be 0.12.

As for A15U U48A U66C U67A U69C A75G, the self-cleavage was 0.07.

Regarding G16A A20U C39U U74A U80C, the self-cleavage stood at 0.06.

Take G16A U26C U41C A45G U51A A57U C62A: the self-cleavage is 0.09.

As to A15U U66C U72C U74C, the self-cleavage was determined as 0.17.

Turning to G16A U41A A65G, the self-cleavage stood at 0.12.

Consider G16A U25A U26C C29U G33A C50A A77C, for which the self-cleavage stood at 0.07.

For C17A U31A A35G U43C U67C, the self-cleavage was determined as 0.06.

C17U U25A U54C: the self-cleavage came out at 0.24.

Consider C17U A21G U49C A57G U72C, for which the self-cleavage amounted to 0.07.

Take G16U U31C A35G U67C A77G U78C: the self-cleavage was determined as 0.11.

In the case of G16C A35C A47U A57G U60C, the self-cleavage is 0.44.

On to G16A A21G U72C, for which the self-cleavage is 0.21.

As to A15U U41A U60C U72C, the self-cleavage amounted to 0.2.

For the variant A15U U31A A45U U76C, the self-cleavage worked out at 0.12.

On to G16A C23U C29G U41C U72C, for which the self-cleavage came to 0.09.

Consider C17U A56U U69A, for which the self-cleavage turned out to be 0.14.

Turning to G16C U58A C62A, the self-cleavage was determined as 0.13.

On to G16A A56G A57G C71U, for which the self-cleavage came to 0.21.

On to G16U A21G G30C, for which the self-cleavage was found to be 0.07.

As for C17A U26C U43C U67C, the self-cleavage was determined as 0.11.

Consider C17A A21G U25C A28G, for which the self-cleavage was 0.42.

For G16A U26C U60C U72G U74A, the self-cleavage turned out to be 0.12.

In the case of C17U U25C A47G, the self-cleavage was 0.35.

The values are drawn from the RNAGym collection of RNA variant scans (doi:10.1093/nar/gkz1192).
